# Reference: paper PMC4336329 (PLoS ONE, 2015)
# Screen size: about 310,000 compounds; about 14,000 (4.5%) showed an effect of 50% or more. Effects have a minus sign here. The list shows a part of the results.
# Target: human ether-à-go-go-related gene (hERG) potassium channel (human, UniProt Q12809)
# Assay: primary screen, population patch clamp on CHO cells stably expressing hERG
# 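Note: peak tail current of the secondary pulse compared with the same well before compound.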
# Sequence of human ether-à-go-go-related gene (hERG) potassium channel (Q12809 whole entry, looked up): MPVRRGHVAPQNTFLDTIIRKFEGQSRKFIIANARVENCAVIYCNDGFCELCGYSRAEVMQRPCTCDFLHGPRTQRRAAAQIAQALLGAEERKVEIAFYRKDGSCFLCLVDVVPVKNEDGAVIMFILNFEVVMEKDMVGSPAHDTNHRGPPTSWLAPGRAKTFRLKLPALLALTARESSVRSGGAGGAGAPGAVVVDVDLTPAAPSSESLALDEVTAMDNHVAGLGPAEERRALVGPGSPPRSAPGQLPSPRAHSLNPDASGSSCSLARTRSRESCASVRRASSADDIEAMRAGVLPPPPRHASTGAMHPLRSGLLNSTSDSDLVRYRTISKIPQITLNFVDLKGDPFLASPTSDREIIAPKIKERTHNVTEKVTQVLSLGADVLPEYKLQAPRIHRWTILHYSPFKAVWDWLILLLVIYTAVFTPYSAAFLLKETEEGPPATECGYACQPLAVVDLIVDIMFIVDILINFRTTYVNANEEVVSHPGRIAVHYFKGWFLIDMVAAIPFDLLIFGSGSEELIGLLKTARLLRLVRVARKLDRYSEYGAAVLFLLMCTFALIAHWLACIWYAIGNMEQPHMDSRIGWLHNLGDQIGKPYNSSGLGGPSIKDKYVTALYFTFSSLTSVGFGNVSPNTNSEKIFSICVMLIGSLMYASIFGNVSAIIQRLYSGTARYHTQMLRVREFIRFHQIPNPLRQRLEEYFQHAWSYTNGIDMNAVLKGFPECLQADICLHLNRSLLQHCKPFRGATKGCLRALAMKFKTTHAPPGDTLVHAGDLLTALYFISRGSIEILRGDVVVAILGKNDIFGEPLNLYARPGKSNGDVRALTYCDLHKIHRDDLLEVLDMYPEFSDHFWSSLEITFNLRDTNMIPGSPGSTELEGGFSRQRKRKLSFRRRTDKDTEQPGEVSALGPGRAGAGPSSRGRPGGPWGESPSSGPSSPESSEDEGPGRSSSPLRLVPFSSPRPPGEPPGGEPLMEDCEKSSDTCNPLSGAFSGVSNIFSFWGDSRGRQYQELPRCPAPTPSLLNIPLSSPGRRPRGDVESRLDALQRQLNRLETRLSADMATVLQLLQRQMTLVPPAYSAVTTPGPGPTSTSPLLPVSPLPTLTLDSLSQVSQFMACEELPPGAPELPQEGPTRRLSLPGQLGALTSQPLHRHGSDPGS
row,SMILES,"hERG current change (%, negative = inhibition) at 10uM [%]"
1,Cc1cc(C)c(S(=O)(=O)NCc2ccc3c(c2)cc(C)n3C)c(C)c1,6.48
2,COc1ccc(-c2csc3nc(C)nc(N4CCC(C)CC4)c23)cc1OC,8.52
3,NC(=O)c1cc(NC(=O)c2ccc(NS(=O)(=O)c3cccs3)cc2)cc(C(N)=O)c1,6.58
4,COc1ccc(C2Nc3ccccc3C(=O)N2NS(=O)(=O)c2ccccc2)cc1 (centres unmarked),11.5
5,COc1cccc(N(C(=O)CCl)C(C(=O)NCCc2ccccc2)c2cccs2)c1 (centres unmarked),-18.3
6,OC(COc1ccccc1CNCc1cccnc1)CN1CCc2ccccc2C1 (centres unmarked),-34.2
7,CCn1c(=O)c(=O)n(CC)c2cc(S(=O)(=O)Nc3ccc(C)cc3)ccc21,7.02
8,Cn1c(=O)c2c(ncn2Cc2cc(-c3ccccc3)no2)n(C)c1=O,-24.4
9,COc1ccc(S(=O)(=O)N2CCCN(CC(=O)Nc3cc(NC(C)=O)ccc3OC)CC2)cc1,-32.7
10,CCOc1ccc(N(C)S(=O)(=O)c2ccc(-c3ccc(=O)[nH]n3)s2)cc1,-15.6
11,O=C1c2cccnc2Nc2ccccc2N1CCCF,2.89
12,O=S(=O)(c1ccc(Br)s1)N1CCc2ccccc2C1,-8.14
13,C#CCOc1ccc(/C=C2/C(=O)ON=C2C)cc1Cl,10.9
14,CCOC(=O)N1CCN(C(=O)c2ccc3c(=O)n(CCC4=CCCCC4)c(=O)[nH]c3c2)CC1,-12.1
15,CCCCCCCC(=O)N/N=C(/C)c1c(O)cc(C)oc1=O,-19
16,CCOC(=O)N1CCN(C(=O)CSc2ccc(C(=O)OC)cc2[N+](=O)[O-])CC1,-10.1
17,Cc1ccccc1NC1=C/C(=N\S(=O)(=O)c2cccs2)c2ccccc2C1=O,9.71
18,COc1cc(C(C)=O)ccc1OCCN1CCC(Cc2ccccc2)CC1.O=C(O)C(=O)O,-91
19,Cc1cc(C)nc(CCNC(=O)c2cc(COc3ccc(F)cc3Cl)on2)n1,-11.8
20,COc1ccccc1C(=O)NN=C1CCN(Cc2ccccc2)CC1,-0.167
21,Cc1cccc(C(=O)OCC(=O)NC(=O)c2ccccc2)c1O,32.1
22,CCOC(=O)N1CCN(C/C(Cl)=C/c2ccccc2)CC1,-3.25
23,O=C(CSc1n[nH]c(-c2cccs2)n1)NCc1cccs1,-8.77
